Laboratory results: patent US20240384323A1, “METHOD FOR DETERMINING PROTEASE ACTIVITY IN A BIOLOGICAL SAMPLE” (CytomX Therapeutics, Inc., priority 2021, published 2024)

Assay: QZ assay in plasma samples (capillary electrophoresis immunoassay)
Assay type: in vitro ADME, human
Conditions: 48 hours at 37° C.
Experimental: Oregon Green-labeled QZ probe in phosphate-buffered saline (PBS) pH 7.2 were added to an equal volume of plasma from healthy donors (n=5), or patients with lung cancer (n=5) or gastric cancer (n=5) (ProteoGenex), to give a final concentration of 714 μg/mL in a total volume of 10 μL. The QZ probe and plasma mixtures were incubated for 48 hours at 37° C. in a humidified chamber, then diluted 1:50 in PBS and analyzed by a capillary electrophoresis immunoassay (CEI). Samples were separated for 33 minutes to resolve component cleavage products and intact QZ probe components (i.e., including intact LC bipartite polypeptide), then incubated for 1 hour with goat polyclonal antibodies against Oregon Green Dye (1/40; A11095 ThermoFisher). Target proteins were immunoprobed using a 30-minute incubation with a horseradish peroxidase-conjugated secondary antibody (1/40; 705-035-147, Jackson ImmunoResearch) and chemiluminescent substrate (PS-CS0; ProteinSimple). Peaks with a signal-to-noise ratio of ≥5 were considered positive. This signal-to-noise ratio was calculated by the Simple Western Compass software (ProteinSimple).
The QZ assay of the present invention can be used to detect protease activity in liquid as well as in solid biological samples. Here, an example is presented of the assessment of a QZ probe comprising an activatable anti-PD-1 antibody therapeutic (HC, SEQ ID NO: 15; LC, SEQ ID NO: 16) was used to assess protease activity in the plasma of heathy donors and patients with cancers. […] The lower limit of detection of cleaved LC was determined to be ≥1 μg/mL.

Measured: Probe Cleavage

B1: activatable anti-PD-1 antibody therapeutic: QZ probe comprising an activatable anti-PD-1 antibody (HC, SEQ ID NO: 15; LC, SEQ ID NO: 16), Oregon Green-labeled (antibody)
heavy: EVQLVESGGGLVQPGGSLRLSCAASGFTFSGYAMSWVRQAPGKGLEWVAYISNSGGNAHYADSVKGRFTISRDNSKNTLYLQMNSLRAEDTAVYYCTREDYGTSPFVYWGQGTLVTVSSASTKGPSVFPLAPCSRSTSESTAALGCLVKDYFPEPVTVSWNSGALTSGVHTFPAVLQSSGLYSLSSVVTVPSSSLGTKTYTCNVDHKPSNTKVDKRV[human IgG4 Fc with S228P (EU numbers) not shown]
light: QGQSGQGTSYCSIEHYPCNTHHGGGSSGGSISSGLLSGRSDNPGGGSDIQLTQSPSSLSASVGDRVTITCRASESVDAYGISFMNWFQQKPGKAPKLLIYAASNQGSGVPSRFSGSGSGTDFTLTISSMQPEDFATYYCQQSKDVPWTFGQGTKLEIKRTVAAPSVFIFPPSDEQLKSGTASVVCLLNNFYPREAKVQWKVDNALQSGNSQESVTEQDSKDSTYSLSSTLTLSKADYEKHKVYACEVTHQGLSSPVTKSFNRGEC
modifications: Oregon Green label
No cleavage: Plasma from Gastric Cancer Patients | Plasma from Healthy Human Donors | Plasma from Lung Cancer Patients
